Values quoted from earlier work in publication PMC8236845.
Read-outs that look alike come from different tables or passages of the source. Numbered stars: 1 amine (or outer) side, 2 acyl side, 3 side chain; on linkers, the order of the positions; unused ones are H or OH. Bridge positions count the residues as written; N and C are the ends. Square brackets hold non-standard residues; d marks the D form. Peptide text beside a SMILES is read from it. * marks the point of attachment. pTerphenylCO(4''-OnC5H11) = CCCCCOc1ccc(-c2ccc(-c3ccc(C(=O)*)cc3)cc2)cc1; Orn(4R-OH,5R-OH) = O=C([C@H](C[C@@H](O)[C@@H](O)N[*:3])N[*:1])[*:2]; hTyr(3S-OH,4S-OH) = N[C@H](C(=O)O)[C@H](O)[C@@H](O)c1ccc(O)cc1; Pro(3S-OH,4S-Me) = C[C@H]1CN[C@H](C(=O)O)[C@H]1O; Hyp = O=C(O)[C@@H]1C[C@@H](O)CN1

Assays:
[1] = in vivo, cited from earlier work; for Elimination T 1/2: human
[2] = bovine, in vivo, cited from earlier work
[3] = rat, in vivo, iv, 10 mg/kg; cited from earlier work

SMILES: C[C@]12CC[C@@H]3c4ccc(OC(=O)c5ccccc5)cc4CC[C@H]3[C@@H]1CC[C@@H]2O [Estradiol benzoate]
- Elimination T 1/2 ([1]; im, 5 mg): 72 h

SMILES: CC(=O)O[C@@]12CO[C@@H]1C[C@H](O)[C@@]1(C)C(=O)[C@H](O)C3=C(C)[C@@H](OC(=O)[C@H](O)[C@@H](NC(=O)OC(C)(C)C)c4ccccc4)C[C@@](O)([C@@H](OC(=O)c4ccccc4)[C@H]21)C3(C)C [Docetaxel]
- Elimination T 1/2 ([1]; iv): 25.4 h

SMILES: CO[C@H]1C[C@H](O[C@H]2[C@H](C)O[C@@H](O[C@@H]3/C(C)=C/C[C@@H]4C[C@@H](C[C@]5(C=C[C@H](C)[C@@H](C6CCCCC6)O5)O4)OC(=O)[C@@H]4C=C(C)[C@@H](O)[C@H]5OC/C(=C\C=C\[C@@H]3C)[C@]54O)C[C@@H]2OC)O[C@@H](C)[C@@H]1O [Doramectin]
- Elimination T 1/2 ([2]; topical or ocular, 500 ug/kg): 240 h
- peak plasma concentration [2]: 0.014 µM

SMILES: Cc1cn(-c2cc(NC(=O)c3ccc(C)c(Nc4nccc(-c5cccnc5)n4)c3)cc(C(F)(F)F)c2)cn1 [Nilotinib AMN-107, Nilotinib]
- Elimination T 1/2 ([1]; po, 300 mg): 16 h

SMILES: CCCCCOc1ccc(-c2ccc(-c3ccc(C(=O)N[C@H]4C[C@@H](O)[C@@H](O)NC(=O)[C@@H]5[C@@H](O)[C@@H](C)CN5C(=O)[C@H]([C@@H](C)O)NC(=O)[C@H]([C@H](O)[C@@H](O)c5ccc(O)cc5)NC(=O)[C@@H]5C[C@@H](O)CN5C(=O)[C@H]([C@@H](C)O)NC4=O)cc3)cc2)cc1 [Anidulafungin] ({pTerphenylCO(4''-OnC5H11)}-[Orn(4R-OH,5R-OH)]T[Hyp][hTyr(3S-OH,4S-OH)]T[Pro(3S-OH,4S-Me)]; lactam 1-C)
- Elimination T 1/2 ([1]; iv): 27 h

SMILES: COc1cc([C@@H]2c3cc4c(cc3[C@H](O)[C@H]3COC(=O)[C@@H]23)OCO4)cc(OC)c1OC [Picropodophyllin]
- Elimination T 1/2 ([1]; po, 520 mg): 2 h

SMILES: CC[C@@]1(O)C(=O)OCc2c1cc1n(c2=O)Cc2cc3cc(O)ccc3nc2-1 [Hydroxycamptothecin]
- Elimination T 1/2 [3]: 7.13 h

SMILES: CC[C@H](C)[C@@H]1NC(=O)[C@H](Cc2ccc(O)cc2)NC(=O)[C@@H](N)CSSC[C@@H](C(=O)N2CCC[C@H]2C(=O)N[C@@H](CC(C)C)C(=O)NCC(N)=O)NC(=O)[C@H](CC(N)=O)NC(=O)[C@H](CCC(N)=O)NC1=O [Oxytocin]
- peak plasma concentration [1]: 0.005 µM
